From PubChem BioAssay AID1865 (National Center for Advancing Translational Sciences (NCATS), 2009)
“And” between values parts separate entries of the source, which are not always exact repeats. Equal values may be shown once. Screen size: about 280,000 compounds; about 540 (0.19%) were called active. The shares of active, inactive and inconclusive entries below differ from those in the screen. The call rests on the fitted dose curve; in most records, active means well fitted activation curve with a large enough effect; inconclusive means small, poorly fitted or top-dose-only effect; inactive means flat fitted curve, though single readings scatter. Where the call is inconclusive, the potency comes from a doubtful curve fit.

Experiment: Quantitative High-Throughput Screen for Regulators of Epigenetic Control; further: nearly all actives have a fitted effect of over 60% in size
Conditions: murine LDR cells, GFP reporter derepression, 30 h; series mostly up to 53.9 µM
Source text: NIH Molecular Libraries Screening Centers Network [MLPCN] NIH Chemical Genomics Center [NCGC] MLSCN Grant: 1 X01 MH079860-01 Assay Provider: Elisabeth D. Martinez, University of Texas SW Medical Center NCGC Assay Overview: The Locus Derepression (LDR) assay detects the derepression or induction of a GFP reporter that is stably integrated in a genomic region of murine cells that is presumably silenced. Transcription of the GFP reporter is controlled by a CMV promoter, which normally is constitutively active. However, this cell line, termed LDR, was selected for lack of constitutive production of GFP. GFP production can be induced by incubating the cells with histone deacetylase or DNA methyltransferase inhibitors (Martinez et al., 2006). Compounds that derepress or induce this reporter locus are identified by enumerating GFP positive cells using a laser-scanning microplate cytometer (Auld et al., 2006). This assay was screened against the MLSMR earlier (AID 597; (Johnson et al., 2008) and has been rescreened here against the expanded collection.
NCGC Assay Protocol Summary: Three hundred LDR cells in 5 uL per well were dispensed into black, clear-bottom 1536-well plates. Twenty-three nL compound was transferred to the assay plate and cells were incubated 30 hours at 37 C. Medium was removed, cells were washed two times with PBS, and GFP-positive cells were enumerated as fluorescent objects between the sizes of 20 to 120 um width and depth using an Acumen Explorer. References Auld, DS, Johnson, RL, Zhang, YQ, Veith, H, Jadhav, A, Yasgar, A, Simeonov, A, Zheng, W, Martinez, ED, Westwick, JK, Austin, CP, Inglese, J (2006). Fluorescent protein-based cellular assays analyzed by laser-scanning microplate cytometry in 1536-well plate format. Methods Enzymol 414: 566-89. Johnson, RL, Huang, W, Jadhav, A, Austin, CP, Inglese, J, Martinez, ED (2008). A quantitative high-throughput screen identifies potential epigenetic modulators of gene expression. Anal Biochem 375: 237-48. Martinez, ED, Dull, AB, Beutler, JA, Hager, GL (2006). High-content fluorescence-based screening for epigenetic modulators. Methods Enzymol 414: 21-36.
Potency means the concentration at half of the fitted maximal effect; tags describe the fitted curve by direction and shape.

SMILES	Potency
COc1cccc(CNC(=O)Cn2c(SCC(=O)Nc3ccc(F)cc3)nc3ccccc32)c1	inconclusive: 14.1 µM [activator, single point]
COC(=O)CSc1nc2ccc(C)cc2cc1C#N	inconclusive: 35.5 µM [activator, single point]
C=C(C)CNC(=S)Nc1sc2c(c1C(=O)OCC)CC(C)(C)OC2	inactive
CCc1cc2c(nc1CC)CCN(CC/C(C)=N/O[C@@H](C)c1cc(-c3c(C)cc(C)cc3C)no1)C2	inconclusive: 22.4 µM [activator, single point]
O=C1c2ccccc2C(=O)N1CCCc1nc2ccccc2c(=O)n1-c1cccnc1	inconclusive: 25.1 µM [activator, partial curve, poor fit]
CSc1ncc(Cl)c(C(=O)Nc2sc3c(c2C(=O)NCc2ccco2)CCCC3)n1	inconclusive: 5.62 µM [activator, single point]
CCCSCCCNC(=O)c1cc2n(n1)CCCN(Cc1ccc(C)cc1)C2=O	inconclusive: 7.08 µM [activator, partial curve, poor fit]
Cc1ccc2c(c1)c1c3n2CCCN(Cc2ccccc2)C3CCC1 (stereo unspecified)	inconclusive: 17.8 µM [activator, single point]
COc1cc(/C=C2\SC(=S)N(N(C)c3ccccc3)C2=O)ccc1O	inconclusive: 14.1 µM [activator, single point]
CCCc1cc(C(=O)Nc2c(C)n(C)n(-c3ccccc3)c2=O)no1	inconclusive: 0.0794 µM [activator, partial curve, poor fit]
O=C(/C=C/c1ccccc1)c1ccc2c(c1)OCCCCO2	inconclusive: 25.1 µM [activator, single point]
CCc1c(C)nc2nncn2c1NCc1ccc(OC)cc1	inactive
CCc1nnc(NC(=S)Nc2ccccc2)s1	inconclusive: 22.4 µM [activator, single point]
CC1=Nc2ccc(C)cc2/C1=C/c1c(N)n2oc(C)cc2nc1=O	inconclusive: 35.5 µM [activator, single point] and inconclusive: 31.6 µM [activator, single point]
COc1cc(NC(=O)c2ccc(-n3cnc4cccnc43)cc2)cc(OC)c1	inactive
Cc1cc(C)c2c(n1)SCCN2C(=O)Nc1ccc(C(=O)Nc2ccc(C(C)C)cc2)cc1	inconclusive: 15.8 µM [activator, single point]
CCN(CC)c1ccc2cc(-c3nc(-c4cc(OC)c(OC)c(OC)c4)no3)c(=O)oc2c1	active: 12.6 µM
O=C(OC(C(=O)NC1CCCCC1)c1ccccc1)c1ccco1 (stereo unspecified)	inconclusive: 28.2 µM [activator, single point]
CCN1/C(=C/c2ccc3cc(C)ccc3[n+]2CC)Sc2cc(C)ccc21	active: 2.82 µM
COC(=O)c1ccccc1NC(=O)Cn1c(=O)n(CCCC(=O)NCc2ccccc2OC)c(=O)c2ccccc21	inconclusive: 35.5 µM [activator, single point]
O=C(Nc1nc(=O)c2ccccc2s1)c1ccc(Cl)cc1	inconclusive: 20 µM [activator, single point]
CC(C)c1ccc(Nc2nc3c(S(=O)(=O)c4ccc(Br)cc4)nnn3c3ccsc23)cc1	inactive
Cc1cccc(C(=O)Nc2ccc(OCc3cc(=O)n4c5c(sc4n3)CCCC5)cc2)c1	inconclusive: 31.6 µM [activator, single point]
Cn1c(=O)c2[nH]c(N/N=C(/C#N)C(N)=O)nc2n(C)c1=O	inactive

SMILES	Potency
O=C(Nc1c(Cl)cccc1Cl)c1cc(-c2cccc(O)c2)on1	inactive
N=c1c2c(n(Cc3ccc(Cl)cc3)c3c1CCC3)CCC2	inactive
CC(C)CC(=O)NCc1ccc2[nH]c3c(c2c1)CCCC3	inactive
Cn1ncc(N=Cc2c(O)ccc3ccccc23)c1C(=O)Nc1cccc(Cl)c1	inconclusive: 22.4 µM [activator, single point]
CCn1c2ccccc2c2cc(CN3CCN(S(=O)(=O)CC)CC3)ccc21	inactive
CCCCn1c(=O)[nH]c(=O)c2c1nc(-c1ccc3ccccc3c1)n2CC	inactive
CC(=O)n1c2c(c3ccccc31)OC(N)=C(C#N)C2c1cccc(Cl)c1Cl (stereo unspecified)	inconclusive: 31.6 µM [activator, single point]
CN(C)/C=C(/C(=O)c1ccc(Cl)cc1)S(C)(=O)=O	inactive
CC(=O)c1ccc(NC(=O)/C=C/c2ccc(C)cc2)cc1	inactive
CC(C)(C)c1ccc(C(=O)CC(Sc2ccc(Cl)cc2)C(=O)O)cc1 (stereo unspecified)	inconclusive: 35.5 µM [activator, single point]
COc1ccc(NC(=O)c2sc3nc(C)c(C(=O)Nc4ccc(C)cc4C)c(-c4cccs4)c3c2N)cc1	inconclusive: 11.2 µM [activator, partial curve]
CC1=C(c2ccc(C)c(C)c2)S(=O)(=O)N=C1N1CCC(C(=O)NCc2ccc(Cl)cc2)CC1	inconclusive: 15.8 µM [activator, single point]
S=C(NCCc1ccccc1)Nc1ccccc1Cl	inactive
O=c1[nH]c2ccc(NCc3ccccc3F)cc2[nH]1	inconclusive: 7.08 µM [activator, partial curve]
O=C(NN1C(=O)c2ccccc2NC1c1ccc([N+](=O)[O-])o1)c1ccc(Br)cc1 (stereo unspecified)	inconclusive: 31.6 µM [activator, single point]
O=C(Nc1ccc2oc(=O)ccc2c1)c1ccc(-c2cccc(Cl)c2)o1	inactive
O=C1S/C(=C\C=C\c2ccco2)C(=O)N1c1ccc(O)cc1	inconclusive: 28.2 µM [activator, single point]
Cc1nc2ccn(Cc3cccnc3)c(=O)c2cc1C(=O)N1CCN(c2ccccc2)CC1	inactive
COc1ccc(OCCSc2nnc(-c3ccc(OC)cc3)n2N)cc1	inconclusive: 3.98 µM [activator, single point]
O=C(CCN1CCOCC1)c1ccc2c(c1)OCCO2	inactive
COc1cc(/C=N/NC(=S)NC2CC3C=CC2C3)cc(OC)c1OC (stereo unspecified)	inconclusive: 35.5 µM [activator, single point]
CCS(=O)(=O)c1oc(-c2ccc(F)cc2)nc1S(=O)(=O)c1ccc(Br)cc1	inconclusive: 5.62 µM [activator, single point]
CCn1c2ccccc2c2nnc(SCC(=O)OCN3C(=O)c4ccccc4C3=O)nc21	inconclusive: 3.16 µM [activator, single point]
COc1cc(N2CCCC2)c(OC)cc1/C=C(/C#N)c1cccc(Br)c1	active: 3.55 µM

SMILES	Potency
CCOC(=O)c1ccc(NC(=O)CSc2nc(-c3cccs3)cc(C(F)(F)F)c2C#N)cc1	active: 10 µM
Cc1ccc2nc3c(cc(C#N)c(=N)n3Cc3cccnc3)c(=O)n2c1	inconclusive: 35.5 µM [activator, single point]
COCc1ccc([C@@H]2C[C@H]3CN(Cc4cccnc4)C(=O)[C@]34CCCN24)o1	inactive
O=C(OCCN1C(=O)c2cccc3c(N4CCOCC4)ccc(c23)C1=O)c1ccc(Cl)cc1Cl	inconclusive: 25.1 µM [activator, single point]
CCCn1nc(NC(=O)c2cccc(Cl)c2)c2cc3cccc(C)c3nc21	active: 15.8 µM
COc1ccc(C(=O)NCCCn2ccnc2)cc1	inactive
COc1cccc(C(=O)Oc2c(CN3CCOCC3)cc(Cl)c3cccnc23)c1	active: 4.47 µM
COC(=O)c1c(SCC(=O)Nc2cccc(Cl)c2C)[nH]c2ccccc2c1=O	inconclusive: 7.94 µM [activator, partial curve]
CCOC(=O)/C(=C\c1ccc(Cl)cc1)c1nc2sc(C)c(C)c2c(=O)[nH]1	inconclusive: 31.6 µM [activator, single point]
COc1ccc(O)c(/C=N/Nc2nc(Nc3ccccc3)nc(-n3nc(C)cc3C)n2)c1	inconclusive: 5.62 µM [activator, single point]
COC(=O)c1ccc(N2Cc3ccccc3/C2=N\C(=O)Nc2ccccc2)cc1	inconclusive: 35.5 µM [activator, single point]
CSc1ncc(Cl)c(C(=O)Nc2nnc(SC)s2)n1	inactive
Cc1ccc(NC(=O)c2cccs2)cc1NC(=O)c1cccnc1	inconclusive: 15.8 µM [activator, single point]
COc1ccc(-n2nnc(C(=O)Nc3ccccc3F)c2N)cc1	inconclusive: 5.62 µM [activator, single point]
NNC(=S)Nc1ccccc1Cl	inactive
Cc1ccc(C(=O)O)cc1Nc1ncnc2sc3c(c12)CCC3	inactive
COc1cccc(NS(=O)(=O)c2cc3c4c(c2)C(C)C(=O)N4CCC3)c1 (stereo unspecified)	inactive
COc1ccc(-c2nnc(SCC(=O)Nc3cccc(Cl)c3C)nc2-c2ccc(OC)cc2)cc1	inconclusive: 15.8 µM [activator, single point]
O=C(c1cc2ncc(Br)cn2n1)N1CCOCC1	inconclusive: 17.8 µM [activator, single point]
CCN(CC)c1ccc(/C=C2/SC(=O)N(C(C)C)C2=O)o1	active: 11.2 µM
O=C(CC1SC(=O)N(c2ccccc2)C1=O)Nc1cccc2ccccc12 (stereo unspecified)	inactive
S=c1[nH]nc(-c2ccncc2)n1/N=C/C(Cl)=C\c1ccccc1	inconclusive: 31.6 µM [activator, single point]
CN(C)c1ccc(/C=N/NC(=O)C2COc3ccccc3O2)o1 (stereo unspecified)	inconclusive: 28.2 µM [activator, single point]
